Laboratory results: PubChem BioAssay AID485344 (National Center for Advancing Translational Sciences (NCATS), 2010)
The campaign covered roughly 340,000 compounds. About 6,900 (2%) were called active. No stated cut-off is given here; in the data, active means inhibition above about 30%; inactive means below that, where a call was filed. The entries are a selection whose mix differs from that of the whole data set. The source gives no active or inactive call for entries shown without one.

Molecular target: D(2) dopamine receptor (Homo sapiens) (UniProt P14416)
Sequence of UniProt P14416 (P14416 whole entry, looked up): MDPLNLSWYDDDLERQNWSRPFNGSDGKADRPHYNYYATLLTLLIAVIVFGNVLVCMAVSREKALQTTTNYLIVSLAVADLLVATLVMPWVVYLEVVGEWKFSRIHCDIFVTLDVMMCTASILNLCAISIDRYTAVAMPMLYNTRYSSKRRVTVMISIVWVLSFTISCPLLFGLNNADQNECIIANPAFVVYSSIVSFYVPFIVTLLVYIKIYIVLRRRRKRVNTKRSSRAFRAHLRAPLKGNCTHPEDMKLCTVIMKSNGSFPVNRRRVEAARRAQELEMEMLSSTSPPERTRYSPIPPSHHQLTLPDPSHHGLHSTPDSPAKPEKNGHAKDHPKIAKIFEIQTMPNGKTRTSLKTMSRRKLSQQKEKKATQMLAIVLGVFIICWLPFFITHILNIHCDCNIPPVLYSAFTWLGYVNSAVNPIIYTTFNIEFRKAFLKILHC
Assay: HTS Assay for Allosteric Antagonists of the Human D2 Dopamine Receptor: Primary Screen for Antagonists; further: 0% is about no effect
Settings: HEK293 TREx D2 cells, calcium flux, dopamine EC80; at 10 µM; stronger effect = higher value
Outline: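 Compounds are added to dye-loaded, induced HEK293 T-REx cells coupled to calcium release via D2; after a 3 min kinetic read an EC80 dopamine stimulus is given and fluorescence is recorded for 3 more min.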

Going from `Cc1ccc(NC(=O)C(Cc2ccccc2)NS(=O)(=O)c2cccs2)cc1Cl` (centres undefined) to `COc1cccc(NC(=O)c2ccc3nc(Cc4ccccc4)oc3c2)c1`, the inhibition falls from 9.51% to 9.05%.

Compared with `O=C(CS(=O)(=O)c1nc(-c2ccc(Cl)cc2)cn1-c1ccccc1)Nc1ccc(F)cc1F`, `Cc1ccc(-c2cn(-c3ccc(Cl)cc3)c(S(=O)(=O)CC(=O)Nc3ccccc3)n2)cc1` is higher in inhibition: 2.73% for the first, 8.81% for the second.

Going from `CC(Oc1ccccc1)C(=O)N1CCN(Cc2cc(=O)n3nc(-c4ccccc4Cl)sc3n2)CC1` (centres undefined) to `O=c1cc(CN2CCN(S(=O)(=O)c3ccccc3)CC2)nc2sc(-c3ccccc3Cl)nn12`, the inhibition falls from -1.16% to -11%.

First: O=C(CCSCc1ccccc1Cl)N1CCN(c2ccc(F)cc2)CC1
Second: COc1ccc(N2CCN(C(=O)c3ccc4c(Cl)c5c(nc4c3)CCCC5)CC2)cc1
The inhibition of the first is lower: -0.102% for the first, 19.8% for the second.

First: CCOC(=O)c1c(C)[nH]c(C)c1S(=O)(=O)NCC(=O)N1CCN(c2cc(Cl)ccc2C)CC1
Second: Cc1ccc(Cl)cc1NC(=O)CCS(=O)(=O)c1ccc2c(c1)n(C)c(=O)c(=O)n2C
The inhibition of the first is lower: -3.38% for the first, 6.64% for the second.

Compared with `CCc1ccc(C(=O)c2cn(CC(=O)Nc3ccc4c(c3)OCCO4)c3ccc(C)cc3c2=O)cc1`, `Cc1cc(C)cc(NC(=O)Cn2cc(C(=O)c3ccccc3)c(=O)c3ccc(C)nc32)c1` is lower in inhibition: 17.5% for the first, -1.82% for the second.

Compared with `CC(=O)c1ccc(NC(=O)COc2ccccc2-c2nc(-c3ccccc3)no2)cc1`, `COc1ccccc1-c1nc(CNC(=O)Nc2ccccc2)c(C)o1` is higher in inhibition: -22.5% for the first, 11.8% for the second.

Compared with `COCc1cc(C)nc2sc3c(c12)NC(c1ccccc1C(=O)O)N(c1ccc(OC)cc1)C3=O` (centres undefined), `COc1ccc(CN2C(=O)N(c3ccc(C)cc3)C(=O)C2CC(=O)Nc2ccccc2)cc1OC` (centres undefined) is higher in inhibition: 8.82% for the first, 23.6% for the second.

Going from `O=c1c2c3c(sc2n(Cc2cc(=O)n4ccccc4n2)c(=O)n1-c1ccccc1)CCC3` to `Cc1ccc(-n2c3nc(=O)[nH]c(=O)c-3cc3c(C)nn(-c4ccccc4)c32)c(C)c1`, the inhibition rises from 2.56% to 5.46%.

Going from `Cc1ccc(C)c(NC(=O)c2nnn(CC(=O)Nc3cccc(C)c3C)c2N)c1` to `Cc1cccc(NC(=O)C(=O)NCCc2csc(-c3ccc(C(F)(F)F)cc3)n2)c1C`, the inhibition falls from 0.741% to -7.2%.

First: O=[N+]([O-])c1cc(-c2nc(-c3ccccc3)no2)ccc1NC1CCCC1
Second: Cc1ccc(Cn2c(SCc3ccc(C(=O)NC4CCCC4)cc3)nc3ccncc32)cc1
The inhibition of the first is higher: 13.4% for the first, 6.79% for the second.

Compared with `CCCc1cc(C(=O)Nc2c(C)nn(Cc3ccc(Cl)c(Cl)c3)c2C)no1`, `Cn1c(=O)c2nc(SCC(=O)Nc3ccc(Cl)c(Cl)c3)n(C)c2n(C)c1=O` is lower in inhibition: 8.01% for the first, -0.158% for the second.

Going from `CCOC(=O)c1c(NC(C)=O)c2c3c(sc2n1Cc1nc(-c2cccc(C)c2)oc1C)CCCC3` to `COc1ccc(-c2cc(C(=O)Nc3sc4c(c3C#N)CCCC4)no2)cc1OC`, the inhibition falls from 7.66% to -19.5%.

Going from `CCOc1ccc(-c2cc(C(=O)NCCc3ccc(Cl)cc3)c3ccccc3n2)cc1` to `O=C(Nc1ccc(Cl)cc1)c1cc2c(-c3ccccc3)nn(-c3ccccc3)c2s1`, the inhibition falls from 21.9% to 3.25%.

First: COc1cc(-c2cc(OC)c3c(C)oc(C)c3c(=O)c2)ccc1OC(=O)c1ccccc1F
Second: COc1ccc(CNC(=O)Cn2nc(C)c3c(C)n(-c4ccccc4)nc3c2=O)cc1OC
The inhibition of the first is lower: -2.9% for the first, -1.69% for the second.

Going from `COc1ccccc1C(=O)NC1=NC(c2ccc(Br)cc2)CC(=O)N1` (centres undefined) to `COC(=O)CN1C(=O)C(O)(CC(=O)c2ccc(F)cc2)c2ccccc21` (centres undefined), the inhibition falls from 15.4% to 6.46%.

First: OCCCc1nc2n(n1)C(c1cccc(Cl)c1)C=C(c1ccccc1)N2 (centres undefined)
Second: Fc1ccc(Br)cc1C1C=C(c2ccc(Br)cc2)Nc2nnnn21 (centres undefined)
The inhibition of the first is higher: 6.63% for the first, -11.1% for the second.

First: Cc1nnc(NC(=O)C(=O)c2cc(C)n(-c3ccc(C)c(C)c3)c2C)s1
Second: COc1ccc(S(=O)(=O)c2nnn(-c3ccc(C)c(Cl)c3)c2C)cc1
The inhibition of the first is higher: 22.3% for the first, -0.899% for the second.

First: Cc1cccc(-n2c(=O)c3c(c4cc(C)ccc4n3C)n(CC(=O)Nc3ccc(C)cc3C)c2=O)c1
Second: COc1cccc(CNC(=O)CCCn2nc(C)c3c(C)n(-c4ccc(C)cc4)nc3c2=O)c1OC
The inhibition of the first is higher: -0.205% for the first, -1.44% for the second.

First: Cc1ccc(C(=O)Nc2ccc3oc(-c4ccncc4)nc3c2)c(Cl)c1
Second: Cc1ccc(NC(=O)c2c(NC(=O)c3ccccc3)sc3c2CCC3)cc1
The inhibition of the first is higher: -6.77% for the first, -8.25% for the second.

Compared with `CCc1ccc(-n2c(=O)c3cccnc3n2CC(=O)Nc2ccccc2C(F)(F)F)cc1`, `O=c1c2sc3ccccc3c2n(Cc2cccc(C(F)(F)F)c2)c(=O)n1Cc1ccc(F)cc1` is lower in inhibition: 0.449% for the first, -3.67% for the second.

First: COc1ccc(-c2cn3c(n2)sc2cc(C(=O)Nc4cc(OC)cc(OC)c4)ccc23)cc1
Second: COc1ccc(NC(=O)CC2C(=O)N(c3cccc(OC)c3)C(=O)N2Cc2ccc3c(c2)OCO3)cc1 (centres undefined)
The inhibition of the first is higher: 6.76% for the first, 2.48% for the second.

Compared with `COc1ccc(-c2ccc(CCC(=O)O)n2CC(=O)Nc2cccc(C(F)(F)F)c2)cc1`, `CCOc1ccc(S(=O)(=O)NCCc2sc3nc(-c4ccc(C)cc4)nn3c2C)cc1` is lower in inhibition: 12.7% for the first, -1.03% for the second.

First: Cc1ccc2nc(NCCc3ccccc3)c3nncn3c2c1
Second: CCn1c(=O)cc(OCC(=O)Nc2ccc(C)c(F)c2)c2ccccc21
The inhibition of the first is higher: 21.2% for the first, -24.9% for the second.

Going from `Cc1nn(-c2ccccc2)c(OC(=O)C(C)(C)C)c1Sc1ccccc1` to `O=C(CSc1oc(-c2ccccc2)nc1S(=O)(=O)c1ccccc1)c1ccccc1`, the inhibition falls from 4.96% to -4.9%.

Going from `Cc1ccc(-n2c(-c3ccco3)nc3c(cnn3-c3ccccc3C)c2=O)cc1` to `COCCn1c(=N)c(C(=O)NCc2ccco2)cc2c(=O)n3cc(C)ccc3nc21`, the inhibition rises from -8.3% to 1.67%.

Compared with `COC(=O)c1cc(NS(=O)(=O)c2cc(Br)cc3c2N(C(C)=O)CC3)cc(C(=O)OC)c1`, `Cc1ccc(NC(=O)CCS(=O)(=O)c2cc(Br)cc3c2N(C(=O)C2CC2)CC3)cc1` is higher in inhibition: -8.96% for the first, -1.14% for the second.

Compared with `CC(C)Cn1cc(NC(=O)NCc2ccccc2Cl)c2ccccc2c1=O`, `O=C(CC1N=C2c3ccccc3N=C(SCC(=O)Nc3ccccc3F)N2C1=O)NCc1cccs1` (centres undefined) is higher in inhibition: -5.63% for the first, 15% for the second.

First: CC(NC(=O)C1CCN(S(=O)(=O)c2ccc3nc4c(c(C(=O)O)c3c2)CCCC4)CC1)c1ccccc1 (centres undefined)
Second: Cc1ccc(/C=C/c2onc(C)c2S(=O)(=O)N2CCC(C(=O)Nc3cc(F)ccc3F)CC2)cc1
The inhibition of the first is higher: 1.56% for the first, -3.17% for the second.

Going from `CCOC(=O)CSc1nc2ccc(NC(=O)COc3ccccc3C)cc2s1` to `CCCn1c(CCC(=O)Nc2ccccc2OC)nc2cccnc21`, the inhibition rises from 0.302% to 2.93%.

Compared with `Cc1nn(CC(=O)N2CCCCC2)c(=O)c2cc3occc3n12`, `CC(C)Cn1c(=O)c2sccc2n2c(CCCC(=O)NC3CCCCC3)nnc12` is lower in inhibition: 3.3% for the first, -12.2% for the second.

First: CCCCc1ccc(NC(=O)C2(C)Cc3ccccc3C(=O)O2)cc1 (centres undefined)
Second: Cc1ccc(CNC(=O)CCCN2C(=O)COc3ccc(C)cc32)cc1
The inhibition of the first is lower: -13.1% for the first, 2.6% for the second.

Compared with `COc1ccc(N(C)C(=O)c2cc(S(=O)(=O)N3CCc4ccccc43)cn2C)c(OC)c1`, `CCOc1ccc(S(=O)(=O)Nc2cc(Cl)ccc2OC)c2cccnc12` is lower in inhibition: 11.1% for the first, -15.8% for the second.

Going from `CCc1ccc(C2CC(=O)Oc3c2c(=O)n(C)c2ccccc32)cc1` (centres undefined) to `CCc1ccc(CN(C(=O)c2cc(=O)c3ccc(C)cc3o2)C2CCS(=O)(=O)C2)cc1` (centres undefined), the inhibition rises from -18.3% to -9.8%.

Compared with `CCN(CC)CCNC(=O)c1ccc(-n2c(-c3ccccc3)cc3c2CCCC3)cc1`, `O=c1oc2ccccc2cc1-c1cn2cc(Cc3ccc(Br)cc3)sc2n1` is lower in inhibition: 26.1% for the first, 0.928% for the second.

First: CC1CCc2c(sc(NC(=O)c3cc(-c4ccc(F)cc4)on3)c2C(N)=O)C1 (centres undefined)
Second: COCCn1c(=O)[nH]c2cc(C(=O)Nc3cccc(C(C)=O)c3)ccc2c1=O
The inhibition of the first is lower: -4.59% for the first, 7.02% for the second.

Compared with `Cc1ccc2sc(N(Cc3cccnc3)C(=O)C3COc4ccccc4O3)nc2c1C` (centres undefined), `Cc1cccc(C)c1Nc1c(-c2ccc(O)cc2)nc2sccn12` is lower in inhibition: 27% for the first, -3.9% for the second.

Compared with `CC1=Nc2cc(C(=O)NC(C)C)ccc2Sc2ccc(C)cc21`, `Cc1cc(C)cc(-n2ccn(Cc3ccc(F)cc3)c(=O)c2=O)c1` is higher in inhibition: -6.66% for the first, 2.07% for the second.

`COc1ccc(NC(=O)CN(C)C(=O)CCSc2ccc(F)cc2)cc1` was tested, and the inhibition was active: 33.7%.
In the case of `CC1(C)Oc2ccc(C(=O)NC3CCCC3)cc2N(CC(=O)NC2CCCCC2)C1=O`, the inhibition is reported as active: 51.9%.
`Cc1ccc(NC(=O)Cc2nnc(SCC(=O)NC3CCCC3)n2C)cc1C` was tested, and the inhibition was active: 31.4%.
For `COc1ccccc1/C=C\C(=O)NCC(=O)N/N=C/c1ccc(O)cc1O`, the inhibition was active: 77.4%.
In the case of `Cc1ccc(-n2nc3c(c2NC(=O)c2ccco2)CS(=O)C3)c(C)c1` (centres undefined), the inhibition is reported as active: 33.3%.
With `C=CCc1cc(OC)ccc1OCCOCCN1CCc2ccccc2C1` the inhibition was active: 84.1%.
For `Cc1nn(C)c(C)c1S(=O)(=O)N1CCC(C(=O)NC2CCCCCC2)CC1`, the inhibition was active: 32.7%.
In the case of `CCCC(C(=O)NC1CCCC1)N(CC1CCCO1)C(=O)CNS(=O)(=O)c1ccc(F)cc1` (centres undefined), the inhibition is reported as active: 31.8%.
With `COC(=O)CCN(C(=O)C12CC3CC(CC(C3)C1)C2)c1ccccn1` the inhibition was active: 33%.
In the case of `O=C(NNC1=Nc2cccc3cccc1c23)c1ccc(Br)cc1`, the inhibition is reported as active: 83.4%.
`CCC(=O)N1CCc2cc(S(=O)(=O)N3CCCCCC3)ccc21` was tested, and the inhibition was active: 30.7%.
For `Cc1c(Cl)c([N+](=O)[O-])nn1CC(=O)NCc1ccco1`, the inhibition was active: 42.1%.
With `NC(=O)c1nsc(C(=O)N(c2ccccc2)C(C(=O)NCc2ccc(F)cc2)c2ccc(O)cc2)c1N` (centres undefined) the inhibition was active: 57%.
`Cc1ccc(NC2CCCN(C(=O)c3cccnc3)C2)cc1C` (centres undefined) was tested, and the inhibition was active: 35.6%.
In the case of `CCOC(=O)C1(CCc2ccccc2)CCN(Cc2cnc(N(C)C)s2)CC1`, the inhibition is reported as active: 50.5%.
With `CC(=O)Nc1ccc(S(=O)(=O)N(C2=NCC(C)S2)c2ccccc2)cc1` (centres undefined) the inhibition was active: 50.7%.
For `O=C(CCC(=O)Nc1ccccc1)N/N=C/C=C/c1ccccc1`, the inhibition was active: 30.3%.
With `CC1CCN(CCCNC(=O)CCc2nnc3n(CCc4ccccc4)c(=O)c4ccccc4n23)CC1` the inhibition was active: 61.1%.
